Results on 42 sequences are retold here after PMC7819943, “Rice protein-binding microarrays: a tool to detect cis-acting elements near promoter regions in rice”.

The list shows a part of the results.

This experiment concerns the target T1, OsWOX13 (Oryza sativa, UniProt Q5QMM3 1-267).
T1 sequence: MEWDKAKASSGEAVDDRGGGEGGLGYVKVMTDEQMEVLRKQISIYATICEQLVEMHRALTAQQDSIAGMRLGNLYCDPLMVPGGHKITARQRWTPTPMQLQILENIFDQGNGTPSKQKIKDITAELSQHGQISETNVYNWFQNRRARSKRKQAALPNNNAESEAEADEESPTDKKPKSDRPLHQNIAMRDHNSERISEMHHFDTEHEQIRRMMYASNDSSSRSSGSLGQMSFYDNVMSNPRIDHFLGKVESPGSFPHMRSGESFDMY
Description: protein-binding microarray (RPBM); PBS, 2% BSA, 51.3 ng/ul salmon testes DNA, 50 uM zinc acetate, 200 nM TF, 25 C, 1 h; high values mean tight binding. The following applies: protein: recombinant; tags: N-terminal polyhistidine and DsRed monomer fusion (pET32a); label: CyDye5-dUTP incorporated in the synthesized complementary strand; 3' TTTTT single-stranded linker to array surface; dsDNA, one strand shown. In outline: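 The binding signal for each feature is its fluorescence intensity in arbitrary units. An Axon 4000B scanner was used to read a custom Agilent array that had been made double-stranded with Cy5-dUTP primer extension, blocked with 2% BSA, incubated at 25 °C for 1 h with 200 nM protein in PBS, 2% BSA, salmon testes DNA and 50 µM zinc acetate, and washed. The protein was an N-terminal polyhistidine–DsRed transcription factor fusion from E. coli BL21-CodonPlus, purified on Ni–NTA.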
For “TATTTTGCTTAAATGGCTGATTAGTCAAAGCATTTGGCCACGGAGTCACCTAGTGCAG”, the binding signal was 4720 fluorescence intensity (a.u.).

For the sequence “ATGATAGCAATCAGTTAGACTAACACCCCAACCAAACCCCCGGAGTCACCTAGTGCAG”, the binding signal was 36100 fluorescence intensity (a.u.).

“TTTGATGACTATCATGTCCTACTACGGTATGCAAATTTGTCGGAGTCACCTAGTGCAG”: the binding signal is 7080 fluorescence intensity (a.u.).

On to “ATTAATCGCAAATTATGAGCCACCAAACCCACTGACTCAACGGAGTCACCTAGTGCAG”, for which the binding signal was 8510 fluorescence intensity (a.u.).

With “ATAAATTGAAGCCTACAGCTGCGTATGTTCAGTACGAGCTCGGAGTCACCTAGTGCAG”, the binding signal is 29100 fluorescence intensity (a.u.).

Regarding “GCCCATGAGTACTAATCAATTTCTACATGCAACTAGGAGCCGGAGTCACCTAGTGCAG”, the binding signal is 7760 fluorescence intensity (a.u.).

Take “CGAAATGGAAGAGATTGAAGATACATGCATGCATGAATCGCGGAGTCACCTAGTGCAG”: the binding signal was 15700 fluorescence intensity (a.u.).

For the sequence “TCATAATTAATTAGAAGTGGCTGCATGTGAGAATGTTTGGCGGAGTCACCTAGTGCAG”, the binding signal was 53800 fluorescence intensity (a.u.).

As for “GTTGATTTCCTGAACTAACCTGTCAAATAAAATATTCCCACGGAGTCACCTAGTGCAG”, the binding signal is 15900 fluorescence intensity (a.u.).

In the case of “TAGTACACATTAATAATTAATAAATCAGGAACGAAATCTTCGGAGTCACCTAGTGCAG”, the binding signal was 11000 fluorescence intensity (a.u.).

Turning to “TTGGGAATTGAAATGCCATTTCCCAAGGATTGAAATGGTGCGGAGTCACCTAGTGCAG”, the binding signal was 4280 fluorescence intensity (a.u.).

In the case of “TGGTCATGATTGGTTCAATTTTCTGTTAGCAAGCTACATGCGGAGTCACCTAGTGCAG”, the binding signal was 42900 fluorescence intensity (a.u.).

As for “AATATTTGTCATTAACTGATCCTGTTGCAAACAATGAATTCGGAGTCACCTAGTGCAG”, the binding signal was 4570 fluorescence intensity (a.u.).

On to “GCTGATTGCTTCTCAAATTAATTAATTAATGTTGGTAGAACGGAGTCACCTAGTGCAG”, for which the binding signal is 41500 fluorescence intensity (a.u.).

As to “CCTATGATTTGGAAATCTTGTAAACCGAATAAGCCCTAAGCGGAGTCACCTAGTGCAG”, the binding signal was 27600 fluorescence intensity (a.u.).

Regarding “ATCGCCCACAATTTTCAATTATTATACAGGAAGAAGAAAACGGAGTCACCTAGTGCAG”, the binding signal was 3240 fluorescence intensity (a.u.).

As for “ATTTCAATCAATCAATTTCTGTTGTTATAATCTAATAGACCGGAGTCACCTAGTGCAG”, the binding signal was 30400 fluorescence intensity (a.u.).

Take “AGAATTGAACTAATTTTGAGGAAGATGTTGTAAAAGGAGGCGGAGTCACCTAGTGCAG”: the binding signal was 6920 fluorescence intensity (a.u.).

For “TGTTATTGACATGCATGCAATAGAACGAGCCGTTCACCGCCGGAGTCACCTAGTGCAG”, the binding signal is 9140 fluorescence intensity (a.u.).

In the case of “GTTTGGATTGATTATTGGGACAGTGAAATTGACCATTTGACGGAGTCACCTAGTGCAG”, the binding signal was 39600 fluorescence intensity (a.u.).

As for “CTCTTGGTTAACTTCTTCTGTGATTTGTCTAGATGAATTTCGGAGTCACCTAGTGCAG”, the binding signal is 7670 fluorescence intensity (a.u.).

In the case of “AATCGACTGATTTGATCGGATACTAAGCAGAACAACGTAACGGAGTCACCTAGTGCAG”, the binding signal was 8790 fluorescence intensity (a.u.).

Turning to “AGTGACAGGACCTAATTACAGCAGTATAGTATTAATTAATCGGAGTCACCTAGTGCAG”, the binding signal was 25500 fluorescence intensity (a.u.).

In the case of “AACATCGCAATTAAGATCCAGTTAATCTCATTTAGTTACTCGGAGTCACCTAGTGCAG”, the binding signal was 9150 fluorescence intensity (a.u.).

For the sequence “TTCTTGATGATTCGCATTTTCTCGTTTCTTTCGCGTGAACCGGAGTCACCTAGTGCAG”, the binding signal is 5840 fluorescence intensity (a.u.).

“ATTTAATTATAGCAAATTTTGCTACGCTACTTCGTGGTTCCGGAGTCACCTAGTGCAG”: the binding signal was 19700 fluorescence intensity (a.u.).

Turning to “TGTAAATAGATACTAATATATATATTTACCTATTAGTTTACGGAGTCACCTAGTGCAG”, the binding signal was 5020 fluorescence intensity (a.u.).

As for “ATATGATTAAGCTATGATCCTTTCCTTTATTAGCTCAGCACGGAGTCACCTAGTGCAG”, the binding signal is 14000 fluorescence intensity (a.u.).

For the sequence “TCACTGTAATTTTGGTATAATTTAATAACTAAATTTGGTACGGAGTCACCTAGTGCAG”, the binding signal is 25700 fluorescence intensity (a.u.).

Regarding “TTAAATTGAAGGTTGAAAATTAAAATTTTGGCTGATAAGTCGGAGTCACCTAGTGCAG”, the binding signal is 22200 fluorescence intensity (a.u.).

For the sequence “ATTGGTCCATTAGCACGTGATTAATTAAGTATTTGCTATTCGGAGTCACCTAGTGCAG”, the binding signal is 11200 fluorescence intensity (a.u.).

With “TGCCATGATTGAGTTGTATGACAATAAGATTACATATGATCGGAGTCACCTAGTGCAG”, the binding signal was 33500 fluorescence intensity (a.u.).

In the case of “TATAATTAGATCGATCGATCGATCCCTTGTGAGGAGTGGGCGGAGTCACCTAGTGCAG”, the binding signal was 20100 fluorescence intensity (a.u.).

As to “ATTGTCAAATCATATAGCAATTAGGCTTAAAAGATTCGTACGGAGTCACCTAGTGCAG”, the binding signal is 10300 fluorescence intensity (a.u.).

For the sequence “CCTAAACATTATTAATGAGAAAAGTTTGTTCGTCGCGGTCCGGAGTCACCTAGTGCAG”, the binding signal was 10900 fluorescence intensity (a.u.).

Take “TTAATTAAATTAAATCAAACACTATATAAATGCACTATTTCGGAGTCACCTAGTGCAG”: the binding signal was 29900 fluorescence intensity (a.u.).

As to “GCGCCTTTCAATTTGCAATTATTTCTCTTGCCTATGTTTTCGGAGTCACCTAGTGCAG”, the binding signal is 10900 fluorescence intensity (a.u.).

Turning to “GCTGGTTTGATTAGATCTTCATCCCACGTGGCATTGACGTCGGAGTCACCTAGTGCAG”, the binding signal is 17200 fluorescence intensity (a.u.).

In the case of “TGGTGATATCAATAGGATTGGAAGAGATTTGTCAGCCTATCGGAGTCACCTAGTGCAG”, the binding signal is 7200 fluorescence intensity (a.u.).

With “CCGTTCAATAACAGATTCAGCGACGACAATTCACCGAAGGCGGAGTCACCTAGTGCAG”, the binding signal is 4440 fluorescence intensity (a.u.).

“TTATACGGTTTAATTAAGGTGAAATTCACTGTGAGAATTTCGGAGTCACCTAGTGCAG”: the binding signal was 4240 fluorescence intensity (a.u.).

On to “TAGAAATTATGAACCAAAATTATTTATTTATTGTGTTCAACGGAGTCACCTAGTGCAG”, for which the binding signal is 4490 fluorescence intensity (a.u.).
